# Laboratory results published in PubChem BioAssay AID686979 (National Center for Advancing Translational Sciences (NCATS), 2013).
# Where “and” joins values, the source holds several entries; their conditions need not be identical. Equal values may be shown once. Among all 420,000 compounds or so, about 50,000 (12%) were called active. Inconclusive results, whose numbers are uncertain, are shown with a selection of clear calls. Calls follow the shape of the dose curve; as a rule, active = well fitted inhibition curve with a large enough effect; inconclusive = small, poorly fitted or top-dose-only effect; inactive = flat fitted curve, though single readings scatter. Potencies of inconclusive entries are left out as doubtful fits.
# Assay: qHTS for Inhibitors of human tyrosyl-DNA phosphodiesterase 1 (TDP1): qHTS in cells in presence of CPT; also: nearly all actives have a fitted effect of over 55% in size
# Conditions: chicken DT40 Tdp1-/-;hTDP1 cells + 20 nM CPT, ATP luminescence, 48 h; activity change, negative = growth inhibition: at 46.2 µM (top of the series) unless noted
# How it was run: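 Cell growth measured by CellTiter-Glo luminescence after a minimum 48 h, 37 C compound exposure with 20 nM CPT in Tdp1-knockout DT40 cells stably expressing hTDP1, seeded 400/well; qHTS titration format.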
# % is scaled to controls: 0 for no effect and ±100 for the full control effect; potency is read from the fitted curve at half-maximal effect; tags tell the direction and shape of the fitted curve.
Compound,Potency,"activity change, negative = growth inhibition"
CC(NC(=O)c1cccc(F)c1)C1CC2CCC1C2 (stereo not drawn),inactive,
CC(C)(C)OC(=O)N1CCC(c2c(C(=O)N3CCC(c4ccccc4)C3)cnn2-c2ccc(Cl)cc2)CC1 (stereo not drawn),active: 13 µM,
COc1cccc(-c2nc(SCc3ccc(C)cc3)n3[nH]c(=O)cc3n2)c1,active: 18.4 µM,
O=C(c1ccc2c(c1)OCO2)C1CCCN(Cc2ccc3cccc(F)c3n2)C1 (stereo not drawn),"inconclusive [inhibitor, single point]",
O=C(OCC(=O)N1CCN(c2ccccc2)CC1)c1cc(F)c(F)cc1Cl,inactive,
O=C([C@H](Cc1ccc(O)cc1)n1cc(CCO)nn1)N1CCNCC1,inactive,
CCN(c1ccccc1)c1nc(Cl)nc2c1cnn2C,"inconclusive [inhibitor, single point]",
C#Cc1ccc([C@@H]2C=C(C(=O)O)O[C@H](OCCCCO)C2)cc1,inactive,
CCC/C(=C1/c2ccccc2C(=O)N1c1ccccc1)c1ccc2c(c1)OCO2,"inconclusive [inhibitor, full curve]",
CCC(=O)N(CCC1(C(C)C)CCOC(C)(C)C1)C(C)c1cccs1 (stereo not drawn),"inconclusive [inhibitor, single point]",
CN(C)Cc1ccccc1-c1cc(NCc2ccccc2)ncn1,inactive,
Cc1c(C(=O)NCC(c2ccco2)N(C)C)oc2c(Cl)cccc12 (stereo not drawn),"inconclusive [inhibitor, single point]",
CC(C)COc1ccc(C(=O)N(Cc2ccco2)C2CCS(=O)(=O)C2)cc1 (stereo not drawn),"inconclusive [inhibitor, partial curve]",
CN(C)S(=O)(=O)c1ccc(C(=O)Nc2ccccc2C(=O)O)cc1,inactive,
CCOC(=O)C1CCN(C(=O)COc2ccc([N+](=O)[O-])cc2)CC1,"inconclusive [inhibitor, single point]",
Cc1ccccc1OCc1nnc(SCc2cc(=O)c3ccc(C)c(C)c3[nH]2)n1C,"inconclusive [inhibitor, single point]",
Cc1ccc(-c2cc3c(n2-c2ccc(F)cc2)CC(C)(C)CC3=O)cc1,active: 16.4 µM,
CC(C)(C)c1ccc(C2=CSC3=NCCN23)cc1,"inconclusive [inhibitor, single point]",
O=C(Nc1cccc(/C=C/c2nc3ccccc3c(=O)[nH]2)c1)c1ccccc1Cl,active: 16.4 µM,
Cc1cc2nn(-c3ccc(F)cc3)nc2cc1N,inactive,
O=C(NCc1cccnc1)c1cc(C2CCCCN2S(=O)(=O)c2ccc(F)cc2F)on1 (stereo not drawn),"inconclusive [inhibitor, single point]",
Cc1[nH]c2ccccc2c1C(=O)C(=O)NC1CC(=O)N(c2ccc(F)cc2)C1 (stereo not drawn),inactive,
O=C(c1cc(-c2cccc(O)c2)on1)N1CCN(C(c2ccccc2)c2ccccc2)CC1,active: 20.6 µM,
CC(CCc1ccccc1)NC(=O)C(=O)N1CCOCC1 (stereo not drawn),inactive,

Compound,Potency,"activity change, negative = growth inhibition"
COc1ccc(CN2CCC(n3nccc3NC(=O)CCCc3ccccc3)CC2)cc1C,"inconclusive [inhibitor, single point]",
Cn1c(=O)[nH]c(=O)c2c1nc(SCCN1CCOCC1)n2CCCc1ccccc1,"inconclusive [inhibitor, single point]",
Cc1cccc(NC(=O)CSc2nc3ccccc3c3nc(CCc4c(C)n[nH]c4C)nn23)c1,active: 16.4 µM,
CCOC(=O)c1c(C)[nH]c(C)c1S(=O)(=O)NCC1CCN(Cc2ccc(C)cc2)CC1,"inconclusive [inhibitor, partial curve, poor fit]",
Cn1c(=O)n(C)c2cc(NC(=O)c3cc4ccccc4o3)ccc21,"inconclusive [inhibitor, single point]",
CC(C)CC(=O)N1CCN(S(=O)(=O)c2ccc3ccccc3c2)CC1,,inconclusive: -33.6% [inhibitor]
COc1ccc(SC[C@H](Cc2ccccc2)N2CCN(CCc3ccccc3)CCC2=O)cc1,active: 23.1 µM,
C#CC1(N2CCCCC2)CCCCC1,inactive,
CCCCCCCOc1ccc(CC(=O)NO)cc1,active: 10 µM,
Cc1[nH]c2ccccc2c1C(=O)CN1CCCCC1CCO (stereo not drawn),"inconclusive [inhibitor, single point]",
CC(C)C(C(=O)NCc1ccco1)N(CC1CCCO1)C(=O)CNS(=O)(=O)c1ccc(F)cc1 (stereo not drawn),inactive,
O=c1[nH]c(C2CCN(S(=O)(=O)c3ccc(C(F)(F)F)cc3)CC2)nc2c1nnn2Cc1ccc(F)cc1,"inconclusive [inhibitor, single point]",
Cc1ccsc1-c1cc2nc(NCCOc3ccccc3Cl)n(C)c(=O)c2s1,"inconclusive [inhibitor, single point]",
CC(C)(C)c1nnc(NC(=O)Nc2ccc(Cl)cc2)s1,"inconclusive [inhibitor, partial curve]",
COc1ccc(Nc2nc3ccccc3nc2NS(=O)(=O)c2ccc(Cl)cc2)cc1OC,active: 9.2 µM,
O=C(CN1CCC2(CC1)OCCO2)c1c[nH]c2ccccc12,"inconclusive [inhibitor, partial curve, poor fit]",
O=C(CSc1n[nH]c(-c2ccncc2)n1)Nc1ccc(Br)cc1,inactive,
Cc1cccc(C)c1NC(=O)C(c1ccccc1)N1CCN(c2ccc(C(F)(F)F)cn2)CC1 (stereo not drawn),active: 23.1 µM,
COc1ccc(C(=O)CC(=O)C(=O)Nc2c(C)cccc2C)cc1,active: 20.6 µM,
N/C(=N\OC(=O)c1ccccc1Cl)c1ccccc1,,inconclusive: -34.2% [inhibitor]
COc1ccccc1-c1cc(C(=O)NCCc2ccccc2)no1,active: 18.4 µM and active: 13 µM,
Cc1c(Cl)cccc1NC(=O)CC(Cc1ccccc1)C(=O)O (stereo not drawn),inactive,
O=C(O)C1CCC(NSc2ccccc2[N+](=O)[O-])CC1 (stereo not drawn),active: 2.91 µM,
CCOC(=O)c1cccc(NC(=O)CSc2nc3cc4ccccc4cc3[nH]2)c1,"inconclusive [inhibitor, single point]",
